Laboratory results as given in PubChem BioAssay AID1671194 (National Center for Advancing Translational Sciences (NCATS), 2021).
Several values for one entry are separate records, joined by “and”; a condition that tells them apart may be missing. Equal values may be shown once. Among all 140,000 compounds or so, about 240 (0.17%) were called active. The inconclusive results got no clear call from the source; some entries with a clear call stand among them for comparison. Calls follow the shape of the dose curve; as a rule, active = well fitted inhibition curve with a large enough effect; inconclusive = small, poorly fitted or top-dose-only effect; inactive = no such curve, though single readings can be large or run the other way. A potency beside an inconclusive call is a rough fit, not a confirmed value.

Test: Primary qHTS assay for inhibitors of alpha-synuclein gene (SNCA) expression; also: nearly all actives have a fitted effect of over 45% in size;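 as to activity change, negative = inhibition: plate controls were DMSO cells for no effect and cell-free wells for full effect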
Conditions: HEK-293 SNCA-luciferase knock-in, luminescence, 24 h; activity change, negative = inhibition: at 57.2 µM (top of the series) unless noted
Potency is read from the fitted curve at half-maximal effect; tags tell the direction and shape of the fitted curve.

Potency, inconclusive:
COc1ccc(Nc2nnc(-c3ccc(C)c(S(=O)(=O)NCc4nc5ccccc5[nH]4)c3)c3ccccc23)cc1 39.8 µM [inhibitor, single point]
NC(=O)[C@H](Cc1cccs1)NC(=O)[C@@]1(O)C[C@@H](O)[C@H](O)[C@@H](NC(=O)NC2CCCCC2)C1 4.47 µM [inhibitor, single point]
Cc1ccc(-c2c(C(=O)NCCCc3ccccc3)nc3sccn23)cc1 39.8 µM [inhibitor, single point]
Cc1ccc(C)c(Cn2c(=O)cc(C(F)(F)F)c3c(C)nn(C)c32)c1 3.16 µM [inhibitor, single point]
Cc1noc(-c2ccccc2OC2CCN(S(C)(=O)=O)C2)n1 (configuration not stated) 28.2 µM [inhibitor, partial curve, poor fit]
COc1ccc(NC(=O)Nc2ccc(C)n(CC(=O)O)c2=O)cc1 3.55 µM [inhibitor, full curve]
COc1ccc(N2C(=O)CSC23C(=O)N(Cc2cccc(C(F)(F)F)c2)c2ccccc23)cc1 (configuration not stated) 39.8 µM [inhibitor, single point]
CN(C)c1ncc2nc(-c3ccc(Cl)cc3)c(=O)n(Cc3ccc(F)cc3)c2n1 10 µM [inhibitor, partial curve, poor fit]
CCOc1ccc2oc(=O)cc(CN3CCN(Cc4ccc(C)cc4)CC3)c2c1 39.8 µM [inhibitor, single point]
COc1ccc(CCNC(=O)c2nc3sccn3c2-c2cccc(C(F)(F)F)c2)cc1 28.2 µM [inhibitor, single point]
O=C(Nc1cccc(Cl)c1)c1nc2sccn2c1-c1cccc(C(F)(F)F)c1 2.82 µM [inhibitor, full curve]
Cc1cccc(CC(=O)N2CC(=O)Nc3ccc(C)cc3C2c2ccc(F)cc2)c1 (configuration not stated) 31.6 µM [inhibitor, single point]
Cc1ccc(C(=O)NC2CCN(Cc3cccc(-c4ccc(F)c(F)c4)c3)CC2)cc1 12.6 µM [inhibitor, partial curve, poor fit]
COc1ccc(N(Cc2cccs2)C(=O)COc2cccc(C)c2C)cc1 17.8 µM [inhibitor, single point]
COCCNC(=O)CCCN1C(=O)COc2ccc(C(=O)COc3ccc(C)cc3C)cc21 17.8 µM [inhibitor, partial curve]
CC(=O)[C@]1(O)Cc2c(O)c3c(c(O)c2[C@@H](O[C@H]2C[C@H](N)[C@H](O)[C@H](C)O2)C1)C(=O)c1ccccc1C3=O 5.01 µM [inhibitor, partial curve, poor fit] and 44.7 µM [inhibitor, partial curve, poor fit]
CCOC(=O)c1cc(-c2ccccc2)n(CCC(=O)NCCc2cccc(C)c2)c1C 35.5 µM [inhibitor, single point]
COc1ccc(CNC(=O)N[C@H](Cc2ccccc2)C(=O)N2CCOCCNC(=O)CC2)cc1 3.55 µM [inhibitor, single point]
COc1ccc(-c2noc(CC3CCN(C(=O)COc4cccc(C)c4)CC3)n2)cc1 20 µM [inhibitor, single point]
Cc1ccccc1OCc1nc(C2CN(C(=O)c3nccc4ccccc34)C2)no1 3.98 µM [inhibitor, partial curve]
NC(=O)c1cccnc1OC1CCN(C(=O)c2ccoc2)C1 (configuration not stated) 7.08 µM [inhibitor, single point]
COc1ccccc1CCC(=O)N1[C@@H]2CC[C@H]1CC(NC(=O)c1cnc(C)cn1)C2 (some centres not stated) 1 µM [inhibitor, full curve, poor fit]
CCCc1ccc(S(=O)(=O)N(CCC)CC2CCOC2)cc1 (configuration not stated) 39.8 µM [inhibitor, single point]
COC(=O)c1cccc(NC(=S)N[C@@H]2C=C[C@@H](c3c(C)nn(-c4ccccc4[N+](=O)[O-])c3C)C2)c1 8.91 µM [inhibitor, partial curve, poor fit]
COc1cc(NC(=O)Cn2c(-c3ccc(Cl)cc3)nc(C)cc2=O)cc(OC)c1OC 35.5 µM [inhibitor, partial curve, poor fit]
CCC(=O)N1CCc2cc(S(=O)(=O)CCC(=O)N3CCN(c4ccccc4F)CC3)ccc21 1 µM [inhibitor, partial curve, poor fit]
CCOc1ccccc1C1NC(=O)N(CC(=O)Nc2ccc(C)c(C)c2)C2=C1C(=O)OC2 (configuration not stated) 8.91 µM [inhibitor, partial curve, poor fit]
Cc1nc2cc(-c3cccc(F)c3)nn2c(C)c1CCC(=O)NC1CCCCC1 39.8 µM [inhibitor, partial curve, poor fit]
CCn1ccnc1CN(C)C1CCCN(CCc2ccccc2)C1 (configuration not stated) 3.16 µM [inhibitor, partial curve, poor fit]
COC1CN(c2cccc(F)c2)C12CCN(C(=O)NC(C)(C)C)CC2 (configuration not stated) 12.6 µM [inhibitor, partial curve, poor fit]
COc1ccc(OC)c(CNc2ncnc3onc(-c4ccc(Cl)cc4)c23)c1 10 µM [inhibitor, partial curve, poor fit]
CCCCN(C)CCNC(=O)C1CCN(c2nc3ccc(CC)cc3s2)CC1 35.5 µM [inhibitor, single point]
Cc1ccc2nc([C@H]3CCN(C(=O)c4ccccc4)C3)[nH]c2c1 56.2 µM [inhibitor, single point]
COCc1nc(C2CCCN(C(=O)c3ccc(OC)cc3OC)C2)no1 (configuration not stated) 8.91 µM [inhibitor, single point]
O=C(Nc1ccccc1)N1CC[C@@]2(CCCN(C(=O)c3cccc(F)c3)C2)C1 31.6 µM [inhibitor, single point]
COc1ccc(OC)c(C2CC(=O)N(c3cccc(C)c3)C3=C2C(=O)OC3)c1 (configuration not stated) 2.24 µM [inhibitor, full curve]
CCOc1ccc(C(=O)Nc2ccc(S(=O)(=O)N(Cc3ccccc3)c3ccccc3)cc2)cc1 1.41 µM [inhibitor, partial curve, poor fit]
Nc1nc(=S)c2[nH]cnc2[nH]1 5.41 µM [inhibitor, full curve, poor fit]
COCCNC(=O)CSc1nc(-c2ccc(F)cc2)[nH]c1-c1ccc(Cl)cc1 39.8 µM [inhibitor, single point]
Cc1ccc(C)c(N2CCN(c3ncnc4onc(C)c34)CC2)c1 0.891 µM [inhibitor, partial curve, poor fit]
COc1cccc(CN2CCC(Cc3ncc(C)n3CC3CC3)C2)c1OC (configuration not stated) 6.31 µM [inhibitor, partial curve]
CC(=O)NCCc1nc2ccccc2n1CCCCOc1ccc(Cl)cc1 35.5 µM [inhibitor, single point]
COc1ccc(-c2cc(C(C)=O)c(C)n2CCC(=O)Nc2cc(C)ccc2OC)cc1 7.08 µM [inhibitor, single point]
Cc1cc(C)c(CNC(=O)c2nc(-c3ccccc3C)cc3c2ccn3C(C)C)c(=O)[nH]1 50.1 µM [inhibitor, single point]
COc1ccc(C)cc1NC(=O)N1c2ccccc2CC1c1nc(C2CC2)no1 (configuration not stated) 39.8 µM [inhibitor, single point]
O=C1CCSC2(C(=O)N(Cc3ccc(F)cc3)c3ccccc32)N1c1ccccc1 (configuration not stated) 25.1 µM [inhibitor, single point]

Activity change, negative = inhibition, inactive:
O=C(NCc1ccc(Cl)cc1)c1ccc2c(c1)NC(=O)C(CS(=O)(=O)Cc1ccc(F)cc1Cl)N2 (configuration not stated) -4.49%
COc1ccccc1CN1CCNc2cnc(OCc3cccnc3)cc2C1 -4.83% [at 87.6 µM]
CN(Cc1cccnc1)C(=O)CCC[C@H]1NC[C@@H]2C[C@H]1CN(Cc1ccccc1)C2 -12.8%
CN(CC1CCOCC1)S(=O)(=O)Cc1cccc(Cl)c1 -2.65%
O=C1COCC2(CN(c3ccc(C(F)(F)F)cn3)C2)CN1c1ccc(F)cc1 -9.7% [at 87.6 µM]
Cc1ccc([S+](=O)([O-])N2CCC(C(=O)N3CCC(c4nc5ncccc5[nH]4)CC3)CC2)cc1 21.7%
CCN(CC)c1cc(CCC(=O)NCc2ccc(Cl)cc2)ccn1 -14.8%
O=C1NC2(Cc3ccccc31)CN(C(=O)c1ccc3c(c1)OCO3)C2 22%
CCc1ccc(N2CC(c3noc(-c4nccc5ccccc45)n3)CC2=O)cc1 (configuration not stated) -26.2%
Cc1cccc(CSc2cn(CC(=O)N3CCCCCC3)c3ccccc23)c1 94.2%
CNC(=O)c1ccc(OC)c(-c2cc(N)nc3[nH]ccc23)c1 -12%
CC(Oc1ccccc1)C(=O)N1CC(Oc2cccc(-c3nc(-c4ccccc4)no3)c2)C1 (configuration not stated) 23.8%
O=C1c2ccccc2C(=O)c2c1ccc(O)c2O -23.9% [at 25.6 µM]
CC(C)Cn1c(=O)c(C(=O)N2CCCC2)nc2cccnc21 16% [at 87.6 µM]
O=C(NCc1ccnc2[nH]ccc12)c1ccc2ccccc2n1 20.8% [at 87.6 µM]
CCc1ccc(NC(=O)c2cc3ccccn3n2)cc1 14.5%
